Measurements: the RNAGym collection of RNA variant scans (doi:10.7554/elife.90254)
The source gives no read counts; variants with many changes may rest on few reads.

B1: LINE1-mini (parent)
chain: GGCAGAGCUCAACACAGCGUGGCAAAGUGGCUGUGGCUAGACUGCC

Variants of: B1
Test: self-cleavage, relative activity (ratio to wild type); higher = more cleavage; in vitro, sequencing; the parent is a self-cleaving ribozyme

**Q.** Which self-cleavage does the source give for C13U U43G C46A here?
**A.** The self-cleavage was 0.03.

**Q.** With G1A G2C A4G A11C as the variant, how does the self-cleavage read?
**A.** The self-cleavage was 0.

**Q.** For G17U U38G C45A C46U, which self-cleavage is on record?
**A.** The self-cleavage was 0.05.

**Q.** With G1C C18A U34G U38C as the variant, how does the self-cleavage read?
**A.** The self-cleavage was 0.01.

**Q.** For U9G A11C U32G U38A, which self-cleavage is on record?
**A.** The self-cleavage was 0.

**Q.** For U9A A12G G21U, which self-cleavage is on record?
**A.** Its self-cleavage is 0.05.

**Q.** For G7A C8G G19A G33U A41C C45A, which self-cleavage is on record?
**A.** Its self-cleavage is 0.01.

**Q.** Which self-cleavage does the source give for G5C C10A G40U here?
**A.** The self-cleavage was 0.

**Q.** With A16G G30U U32C as the variant, how does the self-cleavage read?
**A.** Its self-cleavage is 0.19.

**Q.** For G1U G5U G44A, which self-cleavage is on record?
**A.** Its self-cleavage is 0.03.

**Q.** With G7A A11U G27U U32C G35U U38A as the variant, how does the self-cleavage read?
**A.** Its self-cleavage is 0.01.

**Q.** For U9G G17C A25C, which self-cleavage is on record?
**A.** The self-cleavage was 0.06.

**Q.** Which self-cleavage does the source give for G1A U9C G33U here?
**A.** Its self-cleavage is 0.

**Q.** Which self-cleavage does the source give for C10G A16C U43A here?
**A.** The self-cleavage was 0.01.

**Q.** With A6C C15U A16C G19U G44C as the variant, how does the self-cleavage read?
**A.** Its self-cleavage is 0.02.

**Q.** Which self-cleavage does the source give for C8U A12U G17U U34C here?
**A.** Its self-cleavage is 0.14.

**Q.** For G1U G17A U20G G22C U32C, which self-cleavage is on record?
**A.** Its self-cleavage is 0.03.

**Q.** Which self-cleavage does the source give for G17U G22A C31A G44C C46G here?
**A.** The self-cleavage was 0.03.

**Q.** Which self-cleavage does the source give for G2C A25C U34G C46U here?
**A.** The self-cleavage was 0.03.

**Q.** With A6G G7C G30C A39C as the variant, how does the self-cleavage read?
**A.** The self-cleavage was 0.01.

**Q.** For C37U G40A U43A, which self-cleavage is on record?
**A.** The self-cleavage was 0.02.

**Q.** Which self-cleavage does the source give for G2U G19U G22U here?
**A.** Its self-cleavage is 0.22.

**Q.** With G2U U9G C13G U20G C31U G40U as the variant, how does the self-cleavage read?
**A.** Its self-cleavage is 0.03.

**Q.** With A4C C8A C18A U20A A39U as the variant, how does the self-cleavage read?
**A.** Its self-cleavage is 0.04.

**Q.** Which self-cleavage does the source give for A11U A16C U43A here?
**A.** The self-cleavage was 0.01.

**Q.** With C13A G22C C46A as the variant, how does the self-cleavage read?
**A.** The self-cleavage was 0.01.

**Q.** For G1A C3U A4U U20G, which self-cleavage is on record?
**A.** The self-cleavage was 0.39.

**Q.** Which self-cleavage does the source give for C3U G17C G22U A24G U34C here?
**A.** Its self-cleavage is 0.13.

**Q.** Which self-cleavage does the source give for G2A C15A G33U here?
**A.** Its self-cleavage is 0.32.

**Q.** For A6U A12C U43C C45U, which self-cleavage is on record?
**A.** The self-cleavage was 0.02.

**Q.** With C3U A14C A26C C45U as the variant, how does the self-cleavage read?
**A.** Its self-cleavage is 0.1.

**Q.** For C3U U9C A14G U34A, which self-cleavage is on record?
**A.** The self-cleavage was 0.06.

**Q.** Which self-cleavage does the source give for G2U G7A C23U U32C G33A here?
**A.** The self-cleavage was 0.01.

**Q.** With C8G C23U U43A as the variant, how does the self-cleavage read?
**A.** Its self-cleavage is 0.08.

**Q.** For A11U C15G G22C G44C, which self-cleavage is on record?
**A.** The self-cleavage was 0.02.

**Q.** With C15A G30A G36A as the variant, how does the self-cleavage read?
**A.** The self-cleavage was 0.1.

**Q.** For G2A A6G G21C, which self-cleavage is on record?
**A.** The self-cleavage was 0.15.

**Q.** Which self-cleavage does the source give for G21A G35U G36U here?
**A.** The self-cleavage was 0.23.

**Q.** Which self-cleavage does the source give for G1U G30C G40U here?
**A.** Its self-cleavage is 0.07.

**Q.** Which self-cleavage does the source give for A14U G19A G22C G44U here?
**A.** The self-cleavage was 0.05.

**Q.** Which self-cleavage does the source give for G35U A41G C46A here?
**A.** The self-cleavage was 0.03.

**Q.** With G19C A26U U28G as the variant, how does the self-cleavage read?
**A.** Its self-cleavage is 0.52.

**Q.** For C8G A24U A26G, which self-cleavage is on record?
**A.** Its self-cleavage is 0.01.

**Q.** With G1U G5C G30A C31U as the variant, how does the self-cleavage read?
**A.** The self-cleavage was 0.04.

**Q.** For C8U G22U G27A, which self-cleavage is on record?
**A.** The self-cleavage was 0.49.

**Q.** For G19C G21A G35U C37U, which self-cleavage is on record?
**A.** Its self-cleavage is 0.02.

**Q.** For G1A G2C A12G G30C G36A G44C, which self-cleavage is on record?
**A.** The self-cleavage was 0.05.

**Q.** For A4G G5A A16U G27A, which self-cleavage is on record?
**A.** Its self-cleavage is 0.2.

**Q.** Which self-cleavage does the source give for G5U A11U A24C C37G here?
**A.** The self-cleavage was 0.01.

**Q.** For A6U C8A G19C, which self-cleavage is on record?
**A.** Its self-cleavage is 0.09.

**Q.** For C10U A12C C31U G33A G36U, which self-cleavage is on record?
**A.** Its self-cleavage is 0.01.

**Q.** For C8U C18U A39U, which self-cleavage is on record?
**A.** Its self-cleavage is 0.05.

**Q.** Which self-cleavage does the source give for A16U C18U A25G here?
**A.** The self-cleavage was 0.

**Q.** Which self-cleavage does the source give for C3U G21U G27A here?
**A.** The self-cleavage was 0.05.

**Q.** Which self-cleavage does the source give for C13A G21A G36C U43C here?
**A.** The self-cleavage was 0.03.

**Q.** For G5A C10G A14G, which self-cleavage is on record?
**A.** Its self-cleavage is 0.02.

**Q.** For G5A G21U A26U, which self-cleavage is on record?
**A.** Its self-cleavage is 0.11.

**Q.** Which self-cleavage does the source give for C15U C31A C42U here?
**A.** Its self-cleavage is 0.05.

**Q.** With A6U C8U C10U A39C as the variant, how does the self-cleavage read?
**A.** The self-cleavage was 0.05.

**Q.** With A24C C37U A41C as the variant, how does the self-cleavage read?
**A.** Its self-cleavage is 0.

**Q.** Which self-cleavage does the source give for G17U A39U U43A here?
**A.** Its self-cleavage is 0.02.

**Q.** For C23A A39U C46U, which self-cleavage is on record?
**A.** Its self-cleavage is 0.1.

**Q.** Which self-cleavage does the source give for C18U G19U G21A U38A here?
**A.** Its self-cleavage is 1.21.

**Q.** Which self-cleavage does the source give for G2A C31U C37U here?
**A.** Its self-cleavage is 0.14.

**Q.** For G5U C8G C13A U20C C37U, which self-cleavage is on record?
**A.** The self-cleavage was 0.05.

**Q.** For A14C A25U G40U, which self-cleavage is on record?
**A.** Its self-cleavage is 0.06.

**Q.** For C3A G7A U34A A39G G40U C42U, which self-cleavage is on record?
**A.** The self-cleavage was 0.03.

**Q.** Which self-cleavage does the source give for G2U C10U A12G C18G A41G here?
**A.** The self-cleavage was 0.

**Q.** Which self-cleavage does the source give for G30U U38A A41C C42G here?
**A.** Its self-cleavage is 0.01.

**Q.** Which self-cleavage does the source give for A24C A41C C45G here?
**A.** The self-cleavage was 0.06.

**Q.** With G1C G19U U20A as the variant, how does the self-cleavage read?
**A.** The self-cleavage was 0.06.

**Q.** With A12U C31G U34A as the variant, how does the self-cleavage read?
**A.** The self-cleavage was 0.01.

**Q.** For G29C G33U A39G C42G, which self-cleavage is on record?
**A.** Its self-cleavage is 0.03.

**Q.** Which self-cleavage does the source give for C13A C23G A24G here?
**A.** The self-cleavage was 0.02.

**Q.** With G5U C13G U28A G29U G40U as the variant, how does the self-cleavage read?
**A.** The self-cleavage was 0.05.

**Q.** For C15A A16G G29U G35U A41G, which self-cleavage is on record?
**A.** The self-cleavage was 0.04.

**Q.** Which self-cleavage does the source give for G5A U34G C37U U38C A39G here?
**A.** Its self-cleavage is 0.03.

**Q.** With A6C G40A C42G as the variant, how does the self-cleavage read?
**A.** The self-cleavage was 0.02.

**Q.** Which self-cleavage does the source give for G1U A6U A14C A24C A25C here?
**A.** The self-cleavage was 0.02.

**Q.** For G2U C23U U34C C37G, which self-cleavage is on record?
**A.** The self-cleavage was 0.06.

**Q.** For G22A G27U G44A, which self-cleavage is on record?
**A.** Its self-cleavage is 0.37.

**Q.** For G2C C8U C10U C13A U28C G35U, which self-cleavage is on record?
**A.** Its self-cleavage is 0.01.

**Q.** For U9A A11C A14C A25G, which self-cleavage is on record?
**A.** The self-cleavage was 0.01.

**Q.** Which self-cleavage does the source give for A6G C8A G19U here?
**A.** Its self-cleavage is 0.23.
